According to US4431809A, “Antibiotic A-33853 derivatives” (Eli Lilly and Company, priority 1982, dated 1984):

Experiments:
Assay type in all cases: cell-based
[1] = test system: Staphylococcus
[2] = test system: Streptococcus
[3] = test system: Staphylococcus aureus S13E; settings: 24 h
[4] = test system: Vaccinia; assay: In vitro antiviral activity, Vaccinia; settings: in words
[5] = test system: Polio virus type III; settings: in words
[6] = test system: Herpes virus type I; assay: In vitro antiviral activity, Herpes virus type I; settings: in words
[7] = test system: Ann Arbor influenza virus type A; assay: In vitro antiviral activity, Ann Arbor influenza virus type A
[8] = test system: Echo 10; assay: In vitro antiviral activity, Echo 10; settings: Echo 10, in words
[9] = test system: Rhino virus; assay: In vitro antiviral activity, Rhino virus; settings: in words

| SMILES | growth inhibition in vitro [1] | growth inhibition in vitro [2] | MIC [3] [µg/mL] | growth inhibition in vitro ([1]; some within the genus Staphylococcus, in words) | growth inhibition in vitro ([2]; some within the genus Streptococcus, in words) | growth inhibition in vitro [4] | growth inhibition in vitro [5] | growth inhibition in vitro [6] | growth inhibition in vitro [7] | growth inhibition in vitro [8] | growth inhibition in vitro [9] |
| --- | --- | --- | --- | --- | --- | --- | --- | --- | --- | --- | --- |
| CC(=O)Oc1cccnc1C(=O)Nc1c(OC(C)=O)cccc1-c1nc2c(C(=O)O)cccc2o1 [diacetyl derivative] | inhibit the growth in vitro | inhibit the growth in vitro | 16 (≈ 33.7 µM) | – | – | – | – | – | – | – | – |
| O=C(Nc1c(O)cccc1-c1nc2c(C(=O)O)cccc2o1)c1ncccc1O [A-33853, 2-[3-hydroxy-2-[[(3-hydroxy-2-pyridinyl)carbonyl]amino]phenyl]-4-benzoxazolecarboxylic acid] | – | – | – | inhibit the growth in vitro | inhibit the growth in vitro | inhibits the growth in vitro | inhibits the growth in vitro | inhibits the growth in vitro | inhibits the growth in vitro | inhibits the growth in vitro | inhibits the growth in vitro |
| CC(=O)Oc1cccnc1C(=O)N(C(C)=O)c1c(OC(C)=O)cccc1-c1nc2c(C(=O)O)cccc2o1 [triacetyl derivative] | inhibit the growth in vitro | inhibit the growth in vitro | 32 (≈ 61.8 µM) | – | – | – | – | – | – | – | – |

Values after ≈ are worked out from the molar mass of the structure shown. Read-outs that look alike come from different tables or passages of the source.
